{"source": "PubChem BioAssay AID485364", "about": "(National Center for Advancing Translational Sciences (NCATS), 2010)", "note": "Among all 360,000 compounds or so, about 11,000 (3.1%) were called active. The shares of active, inactive and inconclusive entries below differ from those in the screen. Calls follow the shape of the dose curve; as a rule, active = well fitted inhibition curve with a large enough effect; inconclusive = small, poorly fitted or top-dose-only effect; inactive = no such curve, though single readings can be large or run the other way. Potencies of inconclusive entries are left out as doubtful fits. Potency is read from the fitted curve at half-maximal effect; tags tell the direction and shape of the fitted curve."}
{"molecular_target": "Schistosoma mansoni thioredoxin glutathione reductase (TGR) (UniProt Q962Y6)", "assay": "qHTS Assay for the Inhibitors of Schistosoma Mansoni Peroxiredoxins; also: nearly all actives have a fitted effect of over 60% in size", "details": "purified TGR, DTNB reduction, TNB absorbance 405 nm; series mostly up to 114 µM", "outline": "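First, TGR (20 nM dispensed) and NADPH were mixed with compound. Second, a 15 min room-temperature incubation followed. Third, further NADPH and then DTNB were added to start the reaction. Finally, TNB absorbance was monitored kinetically.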"}
{"smiles": "CC(=O)CC(=O)NC1C2CC3CC(C2)CC1C3", "note": "(stereo not given)", "Potency": "inconclusive [inhibitor, single point]"}
{"smiles": "COC(=O)c1ccc(N2CCN(c3ccccc3)CC2)nc1", "Potency": "inactive"}
{"smiles": "COCCN1CCn2c(nc3cc(NS(C)(=O)=O)ccc32)C1", "Potency": "inconclusive [inhibitor, partial curve]"}
{"smiles": "CC(/C=N/N1C(=O)CSC1=S)=C\\c1ccccc1", "Potency": "inconclusive [inhibitor, full curve]"}
{"smiles": "CC(=O)N1CCN(c2ccc(N=Cc3c(O)n(-c4ccc(Cl)cc4)c(=O)[nH]c3=O)cc2)CC1", "Potency": "inconclusive [inhibitor, partial curve]"}
{"smiles": "CCOC(=O)c1cn(Cc2c(C)c(C)c(C)c(C)c2C)nn1", "Potency": "inactive"}
{"smiles": "CN1C(=O)/C(=C\\N2CCc3ccccc32)C(=O)NC1=S", "Potency": "inconclusive [inhibitor, partial curve]"}
{"smiles": "NC(=O)C1CCN(c2nc(-c3ccc4ccccc4c3)cs2)CC1", "Potency": "inconclusive [inhibitor, partial curve]"}
{"smiles": "CCN(CC)S(=O)(=O)c1ccc(C(=O)NCCSc2c(-c3ccc(C)cc3)[nH]c3ccccc23)cc1", "Potency": "inactive"}
{"smiles": "O=C(/C=C/c1ccco1)Nc1nc(-c2ccc(F)c(F)c2)cs1", "Potency": "active: 39.8 µM"}
{"smiles": "O=C(c1cc(F)ccc1F)N1CCC(N2CCC(C(=O)N3CCCC3)CC2)CC1", "Potency": "inconclusive [inhibitor, partial curve]"}
{"smiles": "CCOc1ccc(C(=O)O)cn1", "Potency": "inconclusive [inhibitor, single point]"}
{"smiles": "Cc1nc(N)nc(N/N=C/c2ccccc2)n1", "Potency": "inactive"}
{"smiles": "COc1ccc(-n2c(CN3CCN(c4ccccc4OC)CC3)nc3ccc([N+](=O)[O-])cc3c2=O)c(OC)c1", "Potency": "inconclusive [inhibitor, partial curve]"}
{"smiles": "COc1ccc(CCC(=O)N2CCN(C(=O)c3ccccc3)CC2)cc1", "Potency": "inconclusive [inhibitor, partial curve]"}
{"smiles": "COc1ccc(C2/C(=C(/O)c3ccc4c(c3)CC(C)O4)C(=O)C(=O)N2CCCN2CCOCC2)cc1", "note": "(stereo not given)", "Potency": "inconclusive [inhibitor, partial curve]"}
{"smiles": "CCc1nnc(NC(=O)c2cc(-c3ccco3)nc3ccccc23)s1", "Potency": "active: 15.8 µM"}
{"smiles": "COc1ccc(/C=C/CN2CCN(Cc3cccc(OC)c3)C(CCO)C2)cc1", "note": "(stereo not given)", "Potency": "inactive"}
{"smiles": "Cc1ccc(C(=O)/C=C/c2ccc(-c3ccc(C)cc3)o2)cc1", "Potency": "inconclusive [inhibitor, single point]"}
{"smiles": "CCOC(=O)c1sc(NC(=S)NC(=O)c2cccc(OC)c2)nc1C", "Potency": "inconclusive [inhibitor, full curve, poor fit]"}
{"smiles": "CCNc1ccc(Br)cc(C(=O)/C=C/c2ccc3c(c2)OCO3)c1=O", "Potency": "inconclusive [inhibitor, full curve, poor fit]"}
{"smiles": "COc1ccc(CCNC(=O)/C=C/c2ccco2)cc1OC", "Potency": "active: 11.2 µM"}
{"smiles": "O=C1c2ccccc2NC(c2cccc(O)c2)N1Cc1ccco1", "note": "(stereo not given)", "Potency": "active: 31.6 µM"}
{"smiles": "CCOc1ccc(C(=O)CCC(=O)Nc2ncccc2O)cc1", "Potency": "inconclusive [inhibitor, partial curve]"}
{"smiles": "COc1ccc2[nH]c(=O)c(CN(C(=O)c3ccco3)C3CCCCC3)cc2c1", "Potency": "inconclusive [inhibitor, partial curve]"}
{"smiles": "COc1ccc(-c2nc(CS(=O)CC(=O)NC3CCCCC3)c(C)o2)cc1", "note": "(stereo not given)", "Potency": "inconclusive [inhibitor, partial curve]"}
{"smiles": "Cc1n[nH]c(=O)c2c(NC(=O)COC(=O)c3cccc(OC(F)F)c3)oc(C)c12", "Potency": "inconclusive [inhibitor, partial curve]"}
{"smiles": "COc1ccc(-n2c(Cc3cccn3C)nnc2SCC(=O)Nc2cccc(Cl)c2)cc1", "Potency": "inconclusive [inhibitor, partial curve]"}
{"smiles": "Cc1ccc(C)c(N(CC(=O)NC2CCCC2)S(=O)(=O)c2ccccc2)c1", "Potency": "inactive"}
{"smiles": "COCC(=O)N(CCc1ccc(OC)c(OC)c1)Cc1cc2cc(C)ccc2nc1Cl", "Potency": "inactive"}
{"smiles": "O=C(CCCn1c(=S)[nH]c2cc3c(cc2c1=O)OCO3)N1CCN(c2ccccc2)CC1", "Potency": "inconclusive [inhibitor, partial curve]"}
{"smiles": "COc1cccc(-c2nn(C)c3sc(C(=O)Nc4ccc5c(c4)OCCO5)cc23)c1", "Potency": "inactive"}
{"smiles": "O=C1N(c2ccccc2)c2ccccc2C1(Cc1ccncc1)Cc1ccncc1", "Potency": "inactive"}
{"smiles": "O=C(CSc1nnc(-c2ccco2)o1)NCC(=O)c1ccccc1", "Potency": "active: 44.7 µM"}
{"smiles": "CCOc1ccccc1NC(=O)C1CCCCN1S(=O)(=O)c1ccc(F)cc1", "note": "(stereo not given)", "Potency": "inconclusive [inhibitor, single point]"}
{"smiles": "O=C(O)CCc1ccc(-c2cccs2)n1NC(=O)c1cccs1", "Potency": "inconclusive [inhibitor, partial curve]"}
{"smiles": "O=C(/C=C/c1ccco1)N(Cc1ccc(Cl)cc1)C1CCS(=O)(=O)C1", "note": "(stereo not given)", "Potency": "active: 3.16 µM"}
{"smiles": "Cc1cc(C)nc(SCc2csc(N)n2)n1", "Potency": "inconclusive [inhibitor, partial curve]"}
{"smiles": "O=C(CSc1nc(-c2ccc(F)cc2)[nH]c1-c1ccccc1)Nc1ccccc1", "Potency": "inactive"}
{"smiles": "CCN(CC)CCN(Cc1cc2cc3c(cc2[nH]c1=O)OCCO3)C(=S)NCCCN(C)C", "Potency": "inconclusive [inhibitor, full curve, poor fit]"}
{"smiles": "COc1ccc(CC(=O)NNC(=O)c2ccccn2)cc1", "Potency": "inconclusive [inhibitor, single point]"}
{"smiles": "CCOc1ccccc1NC(=S)Nc1ccc(S(N)(=O)=O)cc1", "Potency": "active: 14.1 µM"}
{"smiles": "COc1cccc(CN2C(=O)c3ccccc3S2(=O)=O)c1", "Potency": "inactive"}
{"smiles": "O=C(O)C1CSC(c2ccccc2)N1C(=O)c1ccco1", "note": "(stereo not given)", "Potency": "inconclusive [inhibitor, partial curve]"}
{"smiles": "CC(NC(=O)CCc1nnc(-c2ccc(-c3ccccc3)cc2)o1)c1nc2ccccc2[nH]1", "note": "(stereo not given)", "Potency": "inconclusive [inhibitor, partial curve]"}
